Test results published in PubChem BioAssay AID588342 (National Center for Advancing Translational Sciences (NCATS), 2011).
The campaign covered roughly 360,000 compounds. About 25,000 (6.9%) were called active. Inconclusive results, whose numbers are uncertain, are shown with a selection of clear calls. Calls come from the whole dose curve; as a rule, active = well fitted inhibition curve with a large enough effect; inconclusive = small, poorly fitted or top-dose-only effect; inactive = flat fitted curve, though single readings scatter. Where the call is inconclusive, the potency comes from a doubtful curve fit.
Note: nearly all actives have a fitted effect of over 55% in size.
Potency is the fitted concentration of half-maximal effect; tags give direction and shape of the fitted curve.
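Throughout, for activity change, negative = inhibition: plate controls were vehicle for no effect and reference inhibitor for full effect.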

These molecules were tested against Luciferin 4-monooxygenase (Photinus pyralis) (UniProt P08659) (assay: qHTS profiling assay for firefly luciferase inhibitor/activator using purifed enzyme and Km concentrations of substrates (counterscreen for miR-21 project)). Conditions: purified FLuc, luminescence inhibition; activity change, negative = inhibition: at 57.5 µM (top of the series).
Sequence of UniProt P08659 (P08659 whole entry, looked up): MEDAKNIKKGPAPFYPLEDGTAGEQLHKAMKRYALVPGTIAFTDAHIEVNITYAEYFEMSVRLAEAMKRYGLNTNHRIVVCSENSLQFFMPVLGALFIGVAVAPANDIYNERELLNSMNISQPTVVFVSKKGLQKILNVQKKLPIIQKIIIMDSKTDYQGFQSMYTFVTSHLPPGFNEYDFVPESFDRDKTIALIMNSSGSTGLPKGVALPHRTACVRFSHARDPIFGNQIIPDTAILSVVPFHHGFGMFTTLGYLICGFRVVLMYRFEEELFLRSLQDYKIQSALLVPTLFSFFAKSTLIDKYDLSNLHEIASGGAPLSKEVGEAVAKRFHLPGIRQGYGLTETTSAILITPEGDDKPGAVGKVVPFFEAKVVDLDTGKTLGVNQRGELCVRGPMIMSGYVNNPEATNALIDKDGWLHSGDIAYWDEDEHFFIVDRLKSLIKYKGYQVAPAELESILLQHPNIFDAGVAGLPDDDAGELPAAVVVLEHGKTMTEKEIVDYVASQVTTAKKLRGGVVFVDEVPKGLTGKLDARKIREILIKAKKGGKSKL
How it was run: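 Purified P. pyralis luciferase (10nM final) with 10uM D-luciferin and 10uM ATP (Km levels) in 50mM Tris acetate pH 7.5, 10mM Mg acetate, 0.01% Tween-20, 0.05% BSA; qHTS 6-point titration, ~60 µM downward; luminescence read.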
`COC(=O)c1ccc(NC(=O)CCc2c(C)nn(-c3ccc(N4CCCC4)nn3)c2C)cc1` was tested, and the Potency was inconclusive: 30.1 µM [inhibitor, single point]. In the case of `Cc1ccc(N/N=C(\C#N)C(=N)N2CCOCC2)cc1`, the Potency was inconclusive: 6.75 µM [inhibitor, single point]. In the case of `COC(=O)c1ccc(OC)c(Cn2c(=O)n(C)c(=O)c3ccccc32)c1`, the Potency was “inactive”. In the case of `COc1ccc2[nH]c3c(=O)n(CCCCC(=O)NCCC(C)C)c(=S)[nH]c3c2c1`, the Potency was “inactive”. `COc1ccc(/C=C/C(=O)Nc2cccc(N3CCOCC3)c2)cc1OC` was tested, and the Potency was active: 26.9 µM. With `COc1ccc2nc(N3C(=O)C(O)=C(C(=O)c4ccco4)C3c3ccc(C)o3)sc2c1` (stereo not drawn) the Potency was inconclusive: 37.9 µM [inhibitor, partial curve, poor fit]. For `COc1cc(C2Nc3ccccc3C(=O)N2c2ccc(Cl)cc2)c(Cl)cc1OCC(=O)O` (stereo not drawn), the Potency was inconclusive: 37.9 µM [inhibitor, single point]. With `CC12/C(=N/O)C3C4CC5C3/C(=N/O)C1C5C42` (stereo not drawn) the activity change, negative = inhibition was inactive: 2.01% [at 2.3 µM]. For `Cc1cc(=O)[nH]c(SCC(=O)N2CCc3ccccc3C2)n1`, the Potency was inconclusive: 7.57 µM [inhibitor, partial curve, poor fit]. With `CC(C)OC(=O)Cc1nc2sc(-c3ccccc3)cc2c(=O)[nH]1` the Potency was active: 16.9 µM. `O=C(CSc1ccc(-c2ccccn2)nn1)Nc1ccc(F)c(F)c1` was tested, and the Potency was active: 13.5 µM. With `Cc1ccccc1-n1c(SCC(=O)Nc2ccccc2)nc2nc3c(cc2c1=O)CCCC3` the Potency was “inactive”. `COc1ccc(NC(=O)c2ccc(-c3ccc(C)c4ccccc34)o2)cc1` was tested, and the Potency was inconclusive: 21.3 µM [inhibitor, partial curve, poor fit]. `CCSc1cc(N2CCCC2)nc(-c2ccc(Cl)cc2)n1` was tested, and the Potency was “inactive”. With `Cc1ccc(S(=O)(=O)N2CCOCC2)cc1C(=O)Nc1nc2ccccc2[nH]1` the Potency was inconclusive: 26.9 µM [inhibitor, partial curve, poor fit]. In the case of `CCCC(=O)Nc1cc(=O)n(C)c(=O)n1C`, the Potency was “inactive”. In the case of `Cc1ccc(NC(=O)c2nc(S(C)(=O)=O)ncc2N(Cc2ccccc2)Cc2ccco2)c(C)c1`, the Potency was “inactive”. In the case of `Cc1c(NC(=O)c2cc([N+](=O)[O-])ccc2N2CCOCC2)cccc1-c1nc2ccccc2o1`, the Potency was inconclusive: 3.79 µM [inhibitor, full curve]. `O=C(NC(c1ccccc1)c1ccccc1)c1ccc(=O)[nH]n1` was tested, and the Potency was “inactive”. `O=C1SC(SC(=Nc2ccccc2)Nc2ccccc2)C(=O)N1c1ccccc1` (stereo not drawn) was tested, and the Potency was inconclusive: 26.9 µM [inhibitor, partial curve, poor fit]. `CCn1ccnc1CN1CCCC(C(=O)c2ccc3cc(OC)ccc3c2)C1` (stereo not drawn) was tested, and the Potency was inconclusive: 21.3 µM [inhibitor, partial curve, poor fit]. With `Cc1[nH]c2ccccc2c1C(=O)CSC(=S)N(C)C` the Potency was inconclusive: 15.1 µM [inhibitor, partial curve]. With `COc1ccc(NC(=O)c2cc(Br)ccc2Cl)c(OC)c1` the Potency was inconclusive: 26.9 µM [inhibitor, partial curve, poor fit]. For `CN(Cc1nccn1C)C(=O)c1cc(COc2cccc(C(F)(F)F)c2)on1`, the Potency was inconclusive: 30.1 µM [inhibitor, partial curve, poor fit]. For `COc1cc(C2C3=C(CC(C)(C)CC3=O)OC(N)=C2[N+](=O)[O-])ccc1O` (stereo not drawn), the Potency was “inactive”. For `CC(C)(C)c1ccc(-c2cc(N)n[nH]2)cc1`, the Potency was active: 9.53 µM. In the case of `COc1ccccc1C(=O)NCCSCc1ccccc1Cl`, the Potency was inconclusive: 19 µM [inhibitor, partial curve]. With `CCOc1ccc(CCNC(=O)CCc2c(C)nc3c(c(C)nn3-c3ccccc3)c2C)cc1OCC` the Potency was “inactive”. For `COc1cccc(/C=C/C(=O)OCC(=O)Nc2cccc(S(=O)(=O)N3CCOCC3)c2)c1OC`, the Potency was inconclusive: 23.9 µM [inhibitor, single point]. With `COC(=O)c1ccc(NC(=O)Cc2ccc(F)cc2)cc1` the Potency was inconclusive: 26.9 µM [inhibitor, partial curve]. `COc1cc(/C(C#N)=C/c2ccccc2)c([N+](=O)[O-])cc1OC` was tested, and the Potency was inconclusive: 30.1 µM [inhibitor, partial curve, poor fit]. In the case of `Cc1cc(=O)oc2c(CN(CC(C)C)CC(C)C)c(O)ccc12`, the Potency was inconclusive: 8.49 µM [inhibitor, partial curve, poor fit]. With `O=[N+]([O-])c1ccc(N/N=C2\CC3CC=CC23)cc1` (stereo not drawn) the Potency was inconclusive: 26.9 µM [inhibitor, partial curve]. With `O=C(CSCC(=O)Nc1cccc2ccccc12)Nc1cccc2ccccc12` the Potency was “inactive”. For `COc1cc(NC(=O)c2ccc(C(C)(C)C)cc2)c(OC)cc1NC(=O)CN1CCCCC1`, the Potency was inconclusive: 21.3 µM [inhibitor, partial curve, poor fit]. For `CCN(CC)c1nc(-c2ccc(C(C)(C)C)cc2)nc2ccccc12`, the Potency was active: 5.36 µM. In the case of `Cn1c2ccccc2c2cc(/C=C(\NC(=O)c3ccccc3)C(=O)O)ccc21`, the Potency was inconclusive: 23.9 µM [inhibitor, partial curve]. With `O=C(N/N=C/c1cccc(Oc2ccccc2)c1)c1cc[n+]([O-])cc1` the Potency was inconclusive: 37.9 µM [inhibitor, partial curve, poor fit]. With `Cc1ccccc1-c1nc(-c2ccc(NC(=O)c3ccc(Br)o3)cc2)no1` the Potency was inconclusive: 15.1 µM [inhibitor, partial curve]. For `O=[N+]([O-])c1ccc(N=Cc2sc3ccccc3c2O)cc1`, the Potency was inconclusive: 0.107 µM [inhibitor, full curve]. For `O=C1CS(=O)(=O)C2(C(=O)N(Cc3cccc(F)c3)c3ccccc32)N1c1ccccc1` (stereo not drawn), the Potency was “inactive”. With `O=C1NN(c2cccc(Br)c2)C(=O)/C1=C\c1ccc(N2CCOCC2)cc1` the Potency was inconclusive: 4.78 µM [inhibitor, partial curve, poor fit]. `O=C(NCc1cccs1)c1ccc2c(c1)OCCO2` was tested, and the Potency was inconclusive: 26.9 µM [inhibitor, partial curve, poor fit].
